Experimental data from PubChem BioAssay AID720542 (National Center for Advancing Translational Sciences (NCATS), 2013).
About 740 (0.21%) of roughly 360,000 compounds were called active. This list was built around the results that the source calls inconclusive (neither active nor inactive); the mix of calls is not that of the screen. Calls follow the shape of the dose curve; as a rule, active = well fitted inhibition curve with a large enough effect; inconclusive = small, poorly fitted or top-dose-only effect; inactive = no such curve, though single readings can be large or run the other way. Potencies of inconclusive entries are left out as doubtful fits.

tested on: Plasmodium falciparum AMA1 (3D7) - RON2 peptide interaction; assay: qHTS for Inhibitors of AMA1-RON; Towards Development of Antimalarial Drug Lead: Primary Screen; conditions: AlphaScreen AMA1-biotinylated RON2 peptide binding; activity change, negative = inhibition: at 58.2 µM (top of the series) unless noted; also: nearly all actives have a fitted effect of over 45% in size;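 as to activity change, negative = inhibition: 0% = vehicle wells and -100% = peptide control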
Outline: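 AMA1 (3D7) with his tag at 25 nM final met compounds first, then biotinylated RON2 peptide at 25 nM; detection used donor plus acceptor beads, 10 µg/mL apiece, read by AlphaScreen after 30 min at room temperature.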
Potency is read from the fitted curve at half-maximal effect; tags tell the direction and shape of the fitted curve.

Row | SMILES | Potency | activity change, negative = inhibition
1 | O=C1c2ccccc2C(=O)c2c1ccc1c(=O)n(C3CCCCC3)[nH]c21 | inconclusive [inhibitor, full curve] | –
2 | COc1ccc(N2CCN(CCCNC(=O)C3(S(=O)(=O)c4ccc(Cl)cc4)CC3)CC2)cc1 | inconclusive [inhibitor, single point] | –
3 | CC1C/C(=N/Nc2ccc([N+](=O)[O-])cc2[N+](=O)[O-])CC(C)(C)C1 (configuration not stated) | inconclusive [inhibitor, partial curve] | –
4 | COc1cccc(CN(C)Cc2cc(=O)oc3cc(O)c(Cl)cc23)c1 | inconclusive [inhibitor, single point] | –
5 | OC(c1ccccc1)c1nc(-c2ccc3c(c2)OCO3)cs1 (configuration not stated) | inconclusive [inhibitor, single point] | –
6 | O=c1ccc(-c2ccc(S(=O)(=O)NCC3CCN(Cc4ccccc4F)CC3)s2)n[nH]1 | inactive | –
7 | CN(C)CCCn1c(N)c(S(=O)(=O)c2ccccc2)c2nc3ccccc3nc21 | inactive | –
8 | Cc1c(NC(=O)c2ccc3c(c2)OCO3)cccc1-c1nc2ccccc2s1 | inactive | –
9 | c1cncc(-c2noc(C34CC5CC(CC(C5)C3)C4)n2)c1 | inactive | –
10 | C[n+]1cccc2cccc([O-])c21 | inconclusive [inhibitor, full curve] | –
11 | CC1=Nc2ccccc2/C1=C/c1c(C)[nH]c2ccccc12 | inconclusive [inhibitor, partial curve] | –
12 | CN1CCSc2ccc(C(=O)NCc3ccccc3F)cc21 | inconclusive [inhibitor, partial curve] | –
13 | Cn1ccc2c(N3CCCC3)cc3c(c21)C1CCC3O1 (configuration not stated) | inconclusive [inhibitor, single point] | –
14 | CN(C)S(=O)(=O)c1ccc(C(=O)OCn2nnc3ccccc3c2=O)cc1 | inactive | –
15 | O=C(NCCOC(=O)c1ccccc1)c1ccc([N+](=O)[O-])cc1 | inactive | –
16 | COc1cccc(CNC(=O)CSCc2cnn(-c3ccccc3)c2-n2cccc2)c1OC | inconclusive [inhibitor, single point] | –
17 | COc1ccc(-c2nnc(SCC(=O)N3CCOCC3)o2)cc1OC | inactive | –
18 | CN(C)c1cccc(C(=O)N2CCCC(C(=O)c3cc(F)ccc3F)C2)c1 (configuration not stated) | inconclusive [inhibitor, full curve, poor fit] | –
19 | C/[N+]([O-])=C\CC(=O)c1ccc(-c2ccccc2)cc1 | inactive | –
20 | CN(C)c1ccc(N=Nc2ccccc2C(=O)OCC(=O)NC2CCCC2)cc1 | active: 7.94 µM | –
21 | O=C(Nc1ccc2oc(-c3ccncc3)nc2c1)c1ccccc1 | inactive | –
22 | O=C(OCc1ccccc1)C1=NNC2C(=O)N(c3ccccc3)C(=O)C12 (configuration not stated) | inconclusive [inhibitor, single point] | –
23 | COc1cccc(/C=N/NC(=O)c2ccc(=O)n(C)c2)c1O | inactive | –
24 | Cc1ccc2nc(-c3ccc(O)c(O)c3)cn2c1 | active: 3.55 µM | –

Row | SMILES | Potency | activity change, negative = inhibition
25 | COCCNC(=O)c1cnn2c(C(F)(F)F)cc(-c3ccc4c(c3)OCO4)nc12 | – | inconclusive: 1.23% [inhibitor]
26 | CCOc1ccc(-c2cncc3nccn23)cc1 | inactive | –
27 | C[C@H](CO)N1C[C@H](C)[C@@H](CN(C)C(=O)Nc2ccc(C(F)(F)F)cc2)Oc2c(NS(=O)(=O)c3cn(C)cn3)cccc2C1=O | inactive | –
28 | COc1ccc(NC(=O)Cn2cc(C(=O)c3ccco3)c3ccccc32)cc1 | inconclusive [inhibitor, partial curve, poor fit] | –
29 | Cc1cccc(C(=O)N2CCCC(c3nc(-c4ccc(F)cc4)no3)C2)c1 (configuration not stated) | inactive | –
30 | COc1cc(/C=C2\SC(=S)N(NC(=O)c3ccc(O)c(OC)c3)C2=O)ccc1O | inconclusive [inhibitor, partial curve] | –
31 | CN(C)c1ncc(S(=O)(=O)c2ccccc2)c(N)n1 | inconclusive [inhibitor, full curve] | –
32 | CCc1nc2ccc(C(=O)NC3CCN(Cc4ccccc4)CC3)cn2c1N(C)Cc1ccc(N(C)C)cc1 | active: 22.4 µM | –
33 | Cn1c(-c2ccc(C=O)s2)nc2ccccc21 | inactive | –
34 | O=c1cc(-c2ccc(O)c(O)c2)oc2cc(O)c(C3OC(CO)C(O)C(O)C3O)c(O)c12 (configuration not stated) | inconclusive [inhibitor, full curve, poor fit] | –
35 | CCOC(=O)c1oc2ccc(S(=O)(=O)Nc3ccc4c(c3)n(C)c(=O)n4C)cc2c1C | inactive | –
36 | Cc1ccc(Nc2c([N+](=O)[O-])ccc3nonc23)cc1C | inconclusive [inhibitor, full curve] | –
37 | C=CC[n+]1c(C)csc1Nc1cccc(Br)c1 | inconclusive [inhibitor, single point] | –
38 | Cc1cnc2cc(Cl)c(Cl)cc2n1 | inconclusive [inhibitor, partial curve] | –
39 | CCCC(=NCCc1c(C)[nH]c2ccccc12)C1=C(O)CC(c2ccccc2)CC1=O (configuration not stated) | inconclusive [inhibitor, partial curve] | –
40 | Cn1c(C(=O)N2CCCC(C(=O)NCc3cccs3)C2)cc2sccc21 (configuration not stated) | inactive | –
41 | O=C(Nc1ccc(N2CCCC2)c(Cl)c1)c1ccc([N+](=O)[O-])o1 | inconclusive [inhibitor, single point] | –
42 | Cc1ccc(CSc2nnc(C)c(=O)n2N)cc1 | inactive | –
43 | N#Cc1nc(Cc2cccc3ccccc23)oc1NCc1ccc2c(c1)OCO2 | inconclusive [inhibitor, single point] | –
44 | O=C(C1CCCN(Cc2ccc(Cl)cc2)C1)N1CCCCC1 (configuration not stated) | inconclusive [inhibitor, single point] | –
45 | COc1ccc(C2CC(c3ccccc3Cl)=NN2c2ccc(S(N)(=O)=O)cc2)cc1 (configuration not stated) | inactive | –
46 | Cc1ccc(NCc2ccncc2)c(Br)c1 | inconclusive [inhibitor, single point] | –
47 | Cc1ccc(C=Nc2ccc(N(C)C)cc2)o1 | inconclusive [inhibitor, single point] | –
48 | CC1=NN(c2ccccc2)C(=O)/C1=C\C=C1\N(C)c2ccccc2C1(C)C | inconclusive [inhibitor, partial curve] | –

Row | SMILES | Potency | activity change, negative = inhibition
49 | Cc1ccc(C(C#N)c2ccc3c(C(F)(F)F)cc(C(F)(F)F)nc3n2)cc1 (configuration not stated) | inconclusive [inhibitor, single point] | –
50 | O=C1c2cc(S(=O)(=O)NCCO)ccc2-c2ccc(S(=O)(=O)NCCO)cc21 | inconclusive [inhibitor, partial curve] | –
51 | COc1ccc2[nH]c(C)c(CCNCc3cccnc3)c2c1 | inconclusive [inhibitor, single point] | –
52 | Cc1cccc2sc(N(CCCN(C)C)C(=O)c3sc4ccccc4c3Cl)nc12 | inconclusive [inhibitor, full curve] | –
53 | CN(C)c1ccc(N=Cc2nc(-c3ccccc3)oc2OC(=O)c2cccc(Br)c2)cc1 | inconclusive [inhibitor, single point] | –
54 | Cc1ccc(NCc2ccc([N+](=O)[O-])s2)cc1 | inconclusive [inhibitor, partial curve] | –
55 | CCCS(=O)(=O)N1CCCC(C(=O)NCCN(Cc2ccccc2)C(C)C)C1 (configuration not stated) | inactive | –
56 | CCN(CC(=O)Nc1ccc(NC(C)=O)cc1)C(=O)c1cc(CN2C(=O)c3ccccc3C2=O)ccc1OC | inactive | –
57 | Cc1cccc(Oc2ccc(S(=O)(=O)N3CCCCC3)cc2NC(=O)C2=COCCO2)c1 | inactive | –
58 | CC(C)(C)OC(=O)N1CCC(c2c(C(=O)NCC3CCN(C4CCCC4)C3)cnn2-c2ccc(F)cc2)CC1 (configuration not stated) | inactive | –
59 | Cc1ccc(NC(=O)NCCN2CCCCC2)cc1Cl | inactive | –
60 | CCC(C(=O)NCc1cccc(C)c1)n1nc(C)c2c(C)n(-c3ccccc3)nc2c1=O (configuration not stated) | inactive | –
61 | Cc1c(C(=O)N2CCCC2)sc(NC(=O)c2ccc(Cl)cc2)c1C#N | inconclusive [inhibitor, single point] | –
62 | CCOc1cc(CN2CCN(c3cccc(C(F)(F)F)c3)CC2)ccc1O | inconclusive [inhibitor, partial curve] | –
63 | CCN(CC)CCn1c(NCc2ccccn2)nc2ccccc21 | inconclusive [inhibitor, single point] | –
64 | CN(C)c1ccc(CNc2ncnc3sccc23)cc1 | inconclusive [inhibitor, partial curve] | –
65 | O=C(NC1CCC(O)CC1)c1cc(-c2ccco2)nc2ccccc12 (configuration not stated) | inconclusive [inhibitor, partial curve] | –
66 | CCCCn1nc(C(=O)NNC(=O)c2ccncc2)c2ccccc2c1=O | inactive | –
67 | CC(C)NC(=S)N(CCc1ccncc1)C(C)C | inconclusive [inhibitor, single point] | –
68 | CC1(NC(=O)c2cc(S(=O)(=O)N3CCCCC3)ccc2Cl)CCS(=O)(=O)C1 (configuration not stated) | inconclusive [inhibitor, full curve, poor fit] | –
69 | CC1=CC(C)(C)N2C(=O)C3(SCC(=O)N3c3ccc(F)cc3)c3cc(C)cc1c32 (configuration not stated) | inconclusive [inhibitor, partial curve, poor fit] | –
70 | COc1ccc(-c2csc(Nc3ccccc3)n2)cc1 | inconclusive [inhibitor, partial curve] | –
71 | COc1ccc2c(c1)N(C[C@H](C)CN(C)C)c1ccccc1S2 | inconclusive [inhibitor, single point] | –
72 | O=C(Nc1cccc(-c2nc3ccccc3[nH]2)c1)c1cccc(NC(=O)c2ccco2)c1 | inconclusive [inhibitor, single point] | –
